Laboratory results from PubChem BioAssay AID1347120 (National Center for Advancing Translational Sciences (NCATS), 2019).
In all, about 390,000 compounds went through this assay and about 930 (0.24%) were called active. The inconclusive results got no clear call from the source; some entries with a clear call stand among them for comparison. Calls come from the whole dose curve; as a rule, active = well fitted activation curve with a large enough effect; inconclusive = small, poorly fitted or top-dose-only effect; inactive = no such curve, though single readings can be large or run the other way. Potencies beside an inconclusive call are fits to weak or partial responses and may not hold up.

Assay: qHTS for Suppressors of FUS Proteinopathy: Primary screen using FUS-linked yeast assay; note: nearly all actives have a fitted effect of over 55% in size;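 for growth rescue (activation): plate controls were DMSO vehicle for no effect and reference control for full effect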
Conditions: S. cerevisiae FUS-expressing, OD600, 24 h; Potency: growth rescue; growth rescue (activation): at 76.6 µM (top of the series)
How it was run: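 Absorbance at 600 nm, taken 24hr after compound addition, measured rescue of FUS-yeast growth at 30C. Induction used 2% galactose with seeding at OD 0.005. Controls: CP55940 from 92uM final, DMSO only.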
Potency is the fitted concentration of half-maximal effect; tags give direction and shape of the fitted curve.

| SMILES | Potency | growth rescue (activation) |
| --- | --- | --- |
| CC(C)OCCCNC(=O)c1ccc2c(c1)N(Cc1c(F)cccc1Cl)C(=O)c1ccccc1S2 | inconclusive: 14.1 µM [activator, partial curve, poor fit] | – |
| CCOC(=O)CC(NS(=O)(=O)c1ccc2[nH]c3c(c2c1)CCCC3)c1ccccc1Cl (stereo not drawn) | inconclusive: 25.1 µM [activator, single point] | – |
| Cc1ccc(S(=O)(=O)N2CCN(C(=O)c3cc4c(C)nn(-c5ccccc5C)c4s3)CC2)cc1 | inconclusive: 22.4 µM [activator, partial curve, poor fit] | – |
| CCOC(=O)CN1CC23C=CC(O2)C(C(=O)Nc2ccc(F)cc2)C3C1=O (stereo not drawn) | – | inconclusive: 18.1% [activator] |
| Cc1ccc2nc(N(Cc3cccnc3)C(=O)COc3ccccc3)sc2c1 | – | inactive: 19.8% |
| Cc1n[nH]c(C)c1NC(=O)CSc1nnnn1-c1cccc(F)c1 | inconclusive: 20 µM [activator, partial curve, poor fit] | – |
| Cc1onc(-c2c(Cl)cccc2Cl)c1C(=O)Nc1ccc(C(N)=O)cc1 | inconclusive: 6.31 µM [activator, partial curve] | – |
| CN(C)CCNC(C(=O)Nc1cccc(S(=O)(=O)N2CCOCC2)c1)c1ccccc1 (stereo not drawn) | – | inactive: 15.8% |
| O=C(NCC1COc2ccccc2O1)c1ccc(Cl)c(S(=O)(=O)N2CCCC2)c1 (stereo not drawn) | inconclusive: 39.8 µM [activator, single point] | – |
| CCCCn1c(N)c(N(CC)C(=O)c2ccc(C#N)cc2)c(=O)[nH]c1=O | inconclusive: 8.91 µM [activator, single point] | – |
| Cc1ccsc1C(=O)OCc1nc2ccccc2c(=O)[nH]1 | inconclusive: 3.55 µM [activator, partial curve, poor fit] | – |
| COc1cc(NS(=O)(=O)c2ccc(NC(=S)NC(=O)C3CCCC3)cc2)nc(OC)n1 | inconclusive: 50.1 µM [activator, single point] | – |
| COc1ccc(OCC(O)CN(CC(O)COc2ccc(OC)cc2)c2cccc(O)c2)cc1 (stereo not drawn) | inconclusive: 35.5 µM [activator, partial curve] | – |
| Cn1nnnc1Sc1ncnc2scc(-c3ccc(F)cc3)c12 | inconclusive: 25.1 µM [activator, partial curve, poor fit] | – |
| COc1ccc(C2=NOC(C(=O)Nc3ccc(C(C)=O)cc3)C2)cc1OC (stereo not drawn) | – | inactive: 18.2% |
| Cc1ccc(C(C)C)cc1OCC(=O)N/N=C/c1ccc2c(c1)OCCO2 | – | inactive: 12.6% |
| Cc1ccc(Nc2nc(-c3sc(NC(=O)c4ccccc4)nc3C)cs2)cc1 | inconclusive: 12.6 µM [activator, partial curve] | – |
| Cc1ccccc1-n1nc2c(c1NC(=O)c1c(-c3ccccc3Cl)noc1C)CSC2 | inconclusive: 31.6 µM [activator, single point] | – |
| CC1=NOC(=O)/C1=C/c1ccc(O)c(Cl)c1 | – | inactive: -0.167% |
| COc1ccccc1N1CCN(C(=O)c2cc3c(C)nn(-c4ccccc4)c3s2)CC1 | inconclusive: 25.1 µM [activator, partial curve] | – |
| COc1ccc([C@@H]2C[C@H]3[C@@H](CN2S(=O)(=O)c2ccccc2)C(=O)C[C@@H](c2ccc(OC)cc2)N3S(=O)(=O)c2ccccc2)cc1 | inconclusive: 11.2 µM [activator, partial curve, poor fit] | – |

| SMILES | Potency | growth rescue (activation) |
| --- | --- | --- |
| O=C(CSc1ccc(-c2ccccn2)nn1)NCc1ccccc1 | – | inactive: 3.85% |
| COC(=O)[C@]12C[C@H](CC(=O)NCC3CCCCC3)C(=O)N(CCC3=CCCCC3)C1=C[C@H](C1CCCC1)O[C@@H]2C | inconclusive: 7.94 µM [activator, partial curve] | – |
| CC(C)COP(=O)(c1ccc(N(C)C)cc1)C(O)c1ccc(Br)cc1 (stereo not drawn) | inconclusive: 25.1 µM [activator, partial curve] | – |
| CC(=O)c1ccc(S(=O)(=O)Nc2cccc(-c3ccc(N4CCCCCC4)nn3)c2)cc1 | inconclusive: 50.1 µM [activator, single point] | – |
| O=C(NCC(c1ccco1)N1CCc2ccccc2C1)c1ccc(Cl)cc1 (stereo not drawn) | – | inactive: 19.9% |
| CCCNc1c(NC(=O)c2ccc(OCCC)cc2)c(=O)oc2ccccc12 | inconclusive: 50.1 µM [activator, single point] | – |
| O=C(NCc1nc2ccccc2[nH]1)C1=C[C@H](C2CCCCC2)C[C@H](OCCCCO)O1 | – | inactive: 9.23% |
| CCOC(=O)N1CCN(C(=O)CSCC(=O)Nc2nc(-c3ccc(-c4ccccc4)cc3)cs2)CC1 | inconclusive: 5.01 µM [activator, full curve] | – |
| Cc1ccc2c(C)c(C(=O)N(Cc3ccc(Cl)cc3)C3CCS(=O)(=O)C3)oc2c1 (stereo not drawn) | inconclusive: 39.8 µM [activator, single point] | – |
| COc1cc2c(cc1NC(=O)CSc1nnc(Cc3cccs3)n1Cc1ccco1)oc1ccccc12 | inconclusive: 20 µM [activator, partial curve, poor fit] | – |
| Cc1cc(OCc2cc(C(=O)N(C)Cc3ccccn3)no2)cc(C)c1Cl | inconclusive: 35.5 µM [activator, single point] | – |
| CCc1cc2c(=O)n(Cc3ccco3)c(SCc3c(C)noc3C)nc2s1 | inconclusive: 20 µM [activator, partial curve, poor fit] | – |
| CCOC(=O)c1c(C)oc2ccc(NS(=O)(=O)c3ccc4c5c(cccc35)C(=O)N4)cc12 | inconclusive: 22.4 µM [activator, partial curve, poor fit] | – |
| COc1cc(NC(=O)N2CCC(CN3CCCC3)CC2)cc(OC)c1OC | inconclusive: 2.82 µM [activator, full curve] | – |
| CC(=O)Nc1cc(-c2ccc(C(=O)NC3CC3)cc2)cn2c(-c3ccc(F)c(Cl)c3)cnc12 | inconclusive: 50.1 µM [activator, single point] | – |
| CCOC(=O)C1(CCc2ccccc2)CCN(Cc2ccc(OC)cc2)CC1 | inconclusive: 11.2 µM [activator, partial curve, poor fit] | – |
| Cc1ccc([C@@H]2CC=C(C(=O)O)[C@H](c3ccc(C(C)(C)C)cc3)N2S(=O)(=O)c2ccc(C)cc2)cc1 | inconclusive: 17.8 µM [activator, single point] | – |
| COc1ccc(OC)c(NC(=O)CSC2=Nc3ccccc3C3=NC(CC(=O)NCc4ccc5c(c4)OCO5)C(=O)N23)c1 (stereo not drawn) | inconclusive: 50.1 µM [activator, single point] | – |
| Cc1cc(-c2n[nH]c(=S)n2/N=C/c2sccc2C)n[nH]1 | inconclusive: 10 µM [activator, partial curve] | – |
| COCCNC(=S)N1CCc2cc(OC)c(OC)cc2C1COc1ccc(F)cc1 (stereo not drawn) | – | inactive: 22.7% |
| Fc1ccc(NCc2nnc(SCc3ccccc3)o2)cc1 | – | inactive: 11.4% |

| SMILES | Potency | growth rescue (activation) |
| --- | --- | --- |
| C#CCn1c(=NC(=O)c2ccc(S(=O)(=O)N3CCc4ccccc4C3)cc2)sc2cc(S(N)(=O)=O)ccc21 | inconclusive: 0.891 µM [activator, full curve, poor fit] | – |
| COc1ccc(N2CCN(C(=O)c3ccc(N(C)S(=O)(=O)c4ccc(OC)cc4)cc3)CC2)cc1 | inconclusive: 35.5 µM [activator, partial curve, poor fit] | – |
| CCOc1ccc(C2CC(c3cccc(OC)c3OC)n3nnnc3N2)cc1Cl (stereo not drawn) | inconclusive: 44.7 µM [activator, single point] | – |
| OCCCn1c(C2CCCN2c2nc(-c3ccc(F)cc3)cs2)nc2cc(Cl)c(Cl)cc21 (stereo not drawn) | active: 35.5 µM | – |
| Cc1ccc(C(C(=O)NC(C)(C)C)N(CC2CCCO2)C(=O)CCC(=O)Nc2ccccn2)cc1 (stereo not drawn) | inconclusive: 12.6 µM [activator, partial curve, poor fit] | – |
| O=Cc1ccc(OC(=O)/C=C/c2ccccc2)cc1 | – | inactive: -33% |
| CCc1ccc(C(=O)Nc2ccc(OC)c(S(=O)(=O)N3CCCCC3)c2)cc1 | inconclusive: 22.4 µM [activator, partial curve] | – |
| CCOc1cc2[nH]c(=O)n(CCCCC(=O)N3CCCCCC3)c(=O)c2cc1OCC | – | inactive: -5.07% |
| CC1CCCN(c2ccc(/C=C(\C#N)c3nn(-c4ccccc4)c(N)c3C#N)cc2[N+](=O)[O-])C1 (stereo not drawn) | inconclusive: 28.2 µM [activator, single point] | – |
| Cc1cc(C)c(NC(=O)C2CCCN2CCC(C)C)c(C)c1 (stereo not drawn) | – | inactive: -1.12% |
| CNc1ccc(S(=O)(=O)NC)cc1[N+](=O)[O-] | inconclusive: 28.2 µM [activator, single point] | – |
| O=C(Nc1cccnc1)c1cc(-c2cccnc2)nc2ccc(Br)cc12 | – | inactive: 18.6% |
| COc1cc(-c2ccno2)ccc1S(=O)(=O)N1CCN(c2ccc(C(C)=O)cc2)CC1 | – | inactive: -7.66% |
| CCCCCN(C(=O)CCC(=O)OCC(=O)NC1CCC(C)CC1)c1c(N)n(CCCC)c(=O)[nH]c1=O (stereo not drawn) | active: 31.6 µM | – |
| Cc1ccc(SCCN2CCN(Cc3ccccc3)CC2)cc1 | – | inactive: -14.8% |
| CN(C)c1ccc(C(CNC(=O)c2ccc(C(C)(C)C)cc2)N2CCOCC2)cc1 (stereo not drawn) | – | inactive: -13% |
| CCC1c2ccc(C)n2CCN1C(=O)Nc1ccc(F)cc1 (stereo not drawn) | inconclusive: 7.94 µM [activator, partial curve, poor fit] | – |
| CC(C)(C)NC(=O)C(CCc1ccccc1)n1c(=O)c(-c2ccccc2)nc2ccccc21 (stereo not drawn) | inconclusive: 31.6 µM [activator, single point] | – |
| CCc1ccc(C=NN2CCN(Cc3ccc(C)cc3C)CC2)cc1 | – | inactive: -1.98% |
| CCOc1ccc(/C=N/NC(=O)c2cc3c(OC)cc(OC)c(OC)c3[nH]2)cc1 | inconclusive: 17.8 µM [activator, single point] | – |
| CCS(=O)(=O)CCSc1nc2ccccc2s1 | – | inactive: 8.2% |
